This sample is rich in variants without activity.
B1: tRNA (parent)
chain: CUCUCGGUAGCCAAGUUGGUUUAAGGCGCAAGACUUUAAUUUAUCACUACGAAAUCUUGAGAUCGGGCGUUCGACUCGCCCCCGGGAGAUUUUUUCCUCGAGCAA

Variants of: B1
Assay: nonsense suppression (GFP-seq) (ratio to wild type); higher = more function; SUP4oc tRNA, yeast GFP reporter sort-seq
In short: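 Yeast carrying genome-integrated SUP4oc tRNA variants from a library with ~3% random mutations were grown in raffinose/galactose medium with 80 mg/L adenine. Each strain also carried a galactose-driven GFP ochre reporter and RFP. Cells were sorted into GFP/RFP bins, and each bin was Illumina-sequenced (phred ≥30). Nonsense suppression (GFPSEQ) is the bin median GFP/RFP, weighted by each variant's estimated cell share per bin, relative to wild-type SUP4oc; variants needed ≥100 reads and ≥30 cells.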

A24C U70C C83U and G25A U71C G86C cannot be ordered by nonsense suppression: ≤ 0.026 for the first, ≤ 0.026 for the second.

A24C C29G C79G and A23U A30C C81U G84A cannot be ordered by nonsense suppression: ≤ 0.026 for the first, ≤ 0.026 for the second.

First: G25A
Second: G25C
The nonsense suppression of the first is lower: ≤ 0.026 for the first, 0.185 for the second.

A24C C27G U35A G59C A74U G85U and A24G G59C cannot be ordered by nonsense suppression: ≤ 0.026 for the first, ≤ 0.026 for the second.

A24G G59A and A24G G73A A89C cannot be ordered by nonsense suppression: ≤ 0.026 for the first, ≤ 0.026 for the second.

A24U G25C A54U C81A G85A and A23U U57C G73U cannot be ordered by nonsense suppression: ≤ 0.026 for the first, ≤ 0.026 for the second.

First: A23U A31U
Second: A24U G61A
The nonsense suppression of the first is lower: ≤ 0.026 for the first, 0.124 for the second.

G25A A33U and G25A C29G A60G cannot be ordered by nonsense suppression: ≤ 0.026 for the first, ≤ 0.026 for the second.

A23G G28C C64G G69A U70G and G25A U63G A74G C81G cannot be ordered by nonsense suppression: ≤ 0.026 for the first, ≤ 0.026 for the second.

A24G C64A G66C and A24G A89C cannot be ordered by nonsense suppression: ≤ 0.026 for the first, ≤ 0.026 for the second.

A24G A89G and A24U A60G U76A A87C cannot be ordered by nonsense suppression: ≤ 0.026 for the first, ≤ 0.026 for the second.

A24C A54C G61A and A24U G85A A89C cannot be ordered by nonsense suppression: ≤ 0.026 for the first, ≤ 0.026 for the second.

A24C G25U U63C G73U and A24C G78C cannot be ordered by nonsense suppression: ≤ 0.026 for the first, ≤ 0.026 for the second.

A23U G61A C75G G86U and G25C A31G C68G cannot be ordered by nonsense suppression: ≤ 0.026 for the first, ≤ 0.026 for the second.

G25C A62G U76A and A23U C56G cannot be ordered by nonsense suppression: ≤ 0.026 for the first, ≤ 0.026 for the second.

A24U G78C C80G and G25C A60G C83G cannot be ordered by nonsense suppression: ≤ 0.026 for the first, ≤ 0.026 for the second.

A24G G59A C79G and A24G G61C U76G cannot be ordered by nonsense suppression: ≤ 0.026 for the first, ≤ 0.026 for the second.

A23U A54U C56U G73C and A23G G28A C64A cannot be ordered by nonsense suppression: ≤ 0.026 for the first, ≤ 0.026 for the second.

Going from A24U G25C to A23G G85U, the nonsense suppression rises from ≤ 0.026 to 0.0779.

A23G G26U A33G C34U G59A and A23U U57C G61C U76C cannot be ordered by nonsense suppression: ≤ 0.026 for the first, ≤ 0.026 for the second.

A24C C64U G67C C79U and A24C C34G C56U U70G cannot be ordered by nonsense suppression: ≤ 0.026 for the first, ≤ 0.026 for the second.

G25A G88C and A24C G73U G78C cannot be ordered by nonsense suppression: ≤ 0.026 for the first, ≤ 0.026 for the second.

A23U G78C and A23U G78A cannot be ordered by nonsense suppression: ≤ 0.026 for the first, ≤ 0.026 for the second.

Compared with A23U G78U, A23U A33G G66U is lower in nonsense suppression: 0.0382 for the first, ≤ 0.026 for the second.

First: A24G U55C
Second: A24G U55A
The nonsense suppression of the first is higher: 0.0553 for the first, ≤ 0.026 for the second.

A24U C34A U71C and A23G C75A G78C cannot be ordered by nonsense suppression: ≤ 0.026 for the first, ≤ 0.026 for the second.

First: A24U A33G C79A
Second: A24C C79U
The nonsense suppression of the first is lower: ≤ 0.026 for the first, 0.209 for the second.

G25A G61A G84C and A23U A62C G69A C72G cannot be ordered by nonsense suppression: ≤ 0.026 for the first, ≤ 0.026 for the second.

A24C U35A A54G U63G and A24G G66C A74U cannot be ordered by nonsense suppression: ≤ 0.026 for the first, ≤ 0.026 for the second.

A24C G32A and A24U G65C cannot be ordered by nonsense suppression: ≤ 0.026 for the first, ≤ 0.026 for the second.

A23G G59A G69A and A23U U71C cannot be ordered by nonsense suppression: ≤ 0.026 for the first, ≤ 0.026 for the second.

A24C A30C C34A and A24C G85A G86A cannot be ordered by nonsense suppression: ≤ 0.026 for the first, ≤ 0.026 for the second.

A24C G25U G28U and A23U C80G G84C cannot be ordered by nonsense suppression: ≤ 0.026 for the first, ≤ 0.026 for the second.

G25A A30G G66U and A23G U63G G69C cannot be ordered by nonsense suppression: ≤ 0.026 for the first, ≤ 0.026 for the second.

A23U G86U and A24U C56U U58G cannot be ordered by nonsense suppression: ≤ 0.026 for the first, ≤ 0.026 for the second.

G25A G69C G88C and A24C C34G C72G cannot be ordered by nonsense suppression: ≤ 0.026 for the first, ≤ 0.026 for the second.

G25A A54U U71G and A24U G32A G69A C75U cannot be ordered by nonsense suppression: ≤ 0.026 for the first, ≤ 0.026 for the second.

A23U C82G and A24U C56A U63C U70C cannot be ordered by nonsense suppression: ≤ 0.026 for the first, ≤ 0.026 for the second.

A23U C79A G85A and A24C C83G cannot be ordered by nonsense suppression: ≤ 0.026 for the first, ≤ 0.026 for the second.

A23U A24G and A23G U35G U55C G61A cannot be ordered by nonsense suppression: ≤ 0.026 for the first, ≤ 0.026 for the second.

A23U G84A and A24C G66A C77G cannot be ordered by nonsense suppression: ≤ 0.026 for the first, ≤ 0.026 for the second.

Going from G25C A60C to A24G A87G, the nonsense suppression rises from ≤ 0.026 to 0.0583.

A24G A87C and A24G U35G U57A cannot be ordered by nonsense suppression: ≤ 0.026 for the first, ≤ 0.026 for the second.

G25A A30G and G25A A30U cannot be ordered by nonsense suppression: ≤ 0.026 for the first, ≤ 0.026 for the second.

Going from A24C C29U to A23U C27U C29A G85A, the nonsense suppression falls from 0.751 to ≤ 0.026.

Going from G25A C72G to A24C G26U, the nonsense suppression rises from ≤ 0.026 to 0.038.

A23G G66U and A23G G88C cannot be ordered by nonsense suppression: ≤ 0.026 for the first, ≤ 0.026 for the second.

A23U G25A and A23U G25U cannot be ordered by nonsense suppression: ≤ 0.026 for the first, ≤ 0.026 for the second.

First: A23U A60G
Second: A24C U57A
The nonsense suppression of the first is higher: 0.0537 for the first, 0.0454 for the second.

A24C U57G and A24G A31U C34U A74G cannot be ordered by nonsense suppression: ≤ 0.026 for the first, ≤ 0.026 for the second.

A24C C72U G84A and A24U C34G cannot be ordered by nonsense suppression: ≤ 0.026 for the first, ≤ 0.026 for the second.

A24U C34U and A23U G26A cannot be ordered by nonsense suppression: ≤ 0.026 for the first, ≤ 0.026 for the second.

G25A C56U G59U A62C U71A C79A and A24G C79G G85U cannot be ordered by nonsense suppression: ≤ 0.026 for the first, ≤ 0.026 for the second.

A23U C27A and A23U C27U cannot be ordered by nonsense suppression: ≤ 0.026 for the first, ≤ 0.026 for the second.

A24C G67C U70G C79G and G25A U70C G73U cannot be ordered by nonsense suppression: ≤ 0.026 for the first, ≤ 0.026 for the second.

A23U G32C U76C and A24U U35G cannot be ordered by nonsense suppression: ≤ 0.026 for the first, ≤ 0.026 for the second.

Going from A24G A62U G67A U76G to A24C G28C, the nonsense suppression rises from ≤ 0.026 to 0.201.

A24C G28U and A24C U58G G65C cannot be ordered by nonsense suppression: ≤ 0.026 for the first, ≤ 0.026 for the second.

A24U A33G G84U and G25A U55G cannot be ordered by nonsense suppression: ≤ 0.026 for the first, ≤ 0.026 for the second.

A23G G26U and G25A G69C G73A cannot be ordered by nonsense suppression: ≤ 0.026 for the first, ≤ 0.026 for the second.

A24U G26C and A24G U35A C75G cannot be ordered by nonsense suppression: ≤ 0.026 for the first, ≤ 0.026 for the second.

A23U A30C and A23U G73U G78U C83G cannot be ordered by nonsense suppression: ≤ 0.026 for the first, ≤ 0.026 for the second.

Compared with A24C A87U, A24C A87C is lower in nonsense suppression: 0.0833 for the first, ≤ 0.026 for the second.

A24G G69A G78A and A24U U58G A60G G88A cannot be ordered by nonsense suppression: ≤ 0.026 for the first, ≤ 0.026 for the second.

A23G G59A C82G and A24G A62U C83A cannot be ordered by nonsense suppression: ≤ 0.026 for the first, ≤ 0.026 for the second.

Compared with A24C U63G, A24C U63A is higher in nonsense suppression: 0.133 for the first, 0.636 for the second.

A23G G28A G32C and A24G C64G C82U cannot be ordered by nonsense suppression: ≤ 0.026 for the first, ≤ 0.026 for the second.

A24G C56A G59A and A24C C82G A87C cannot be ordered by nonsense suppression: ≤ 0.026 for the first, ≤ 0.026 for the second.

A23G G28A G59C C82G and A24U A74C C79A C81A cannot be ordered by nonsense suppression: ≤ 0.026 for the first, ≤ 0.026 for the second.

G25A A62C C79U and A23G U55A C82A cannot be ordered by nonsense suppression: ≤ 0.026 for the first, ≤ 0.026 for the second.

A23G G67C G73C and A24G C83A cannot be ordered by nonsense suppression: ≤ 0.026 for the first, ≤ 0.026 for the second.

A24C C56A A62C and G25A G61A G73C cannot be ordered by nonsense suppression: ≤ 0.026 for the first, ≤ 0.026 for the second.

A23G C77A and A24C A30U G32U C82A cannot be ordered by nonsense suppression: ≤ 0.026 for the first, ≤ 0.026 for the second.

A24G U57A C79G and A24C C56A U63C G88C cannot be ordered by nonsense suppression: ≤ 0.026 for the first, ≤ 0.026 for the second.

A23G G28A U76C and A24C C64G G78C cannot be ordered by nonsense suppression: ≤ 0.026 for the first, ≤ 0.026 for the second.

A24U G86U and A23G U58G cannot be ordered by nonsense suppression: ≤ 0.026 for the first, ≤ 0.026 for the second.

A24G G59A G61U U63C G66A and A24U C56A U63G cannot be ordered by nonsense suppression: ≤ 0.026 for the first, ≤ 0.026 for the second.

A24C C68A and A23U A24G U63G C75U cannot be ordered by nonsense suppression: ≤ 0.026 for the first, ≤ 0.026 for the second.

A23U A74G G86A and A24U G73C C80G cannot be ordered by nonsense suppression: ≤ 0.026 for the first, ≤ 0.026 for the second.

A24U C81A G86U and A24C G32U U71C cannot be ordered by nonsense suppression: ≤ 0.026 for the first, ≤ 0.026 for the second.

A24G A33G U71C and A24C G25U C82G cannot be ordered by nonsense suppression: ≤ 0.026 for the first, ≤ 0.026 for the second.

Compared with A24G, A24C is higher in nonsense suppression: 0.188 for the first, 1.13 for the second.

Compared with A24U, A24C C72A is lower in nonsense suppression: 0.487 for the first, ≤ 0.026 for the second.

A24C C72U showed a nonsense suppression of 0.0288.
